Results from paper PMC3858240 (Journal of immunology (Baltimore, Md. : 1950), 2013).

B1: full-length Myc-tagged MyD88 (natural protein)
chain: MAAGGPGAGSAAPVSSTSSLPLAALNMRVRRRLSLFLNVRTQVAADWTALAEEMDFEYLEIRQLETQADPTGRLLDAWQGRPGASVGRLLELLTKLGRDDVLLELGPSIEEDCQKYILKQQQEEAEKPLQVAAVDSSVPRTAELAGITTLDDPLGHMPERFDAFICYCPSDIQFVQEMIRQLEQTNYRLKLCVSDRDVLPGTCVWSIASELIEKRCRRMVVVVSDDYLQSKECDFQTKFALSLSPGAHQKRLIPIKYKAMKKEFPSILRFITVCDYTNPCTKSWFWTRLAKALSLP
B2: full-length Myc-tagged TRIF (natural protein)
chain: MACTGPSLPSAFDILGAAGQDKLLYLKHKLKTPRPGCQGQDLLHAMVLLKLGQETEARISLEALKADAVARLVARQWAGVDSTEDPEEPPDVSWAVARLYHLLAEEKLCPASLRDVAYQEAVRTLSSRDDHRLGELQDEARNRCGWDIAGDPGSIRTLQSNLGCLPPSSALPSGTRSLPRPIDGVSDWSQGCSLRSTGSPASLASNLEISQSPTMPFLSLHRSPHGPSKLCDDPQASLVPEPVPGGCQEPEEMSWPPSGEIASPPELPSSPPPGLPEVAPDATSTGLPDTPAAPETSTNYPVECTEGSAGPQSLPLPILEPVKNPCSVKDQTPLQLSVEDTTSPNTKPCPPTPTTPETSPPPPPPPPSSTPCSAHLTPSSLFPSSLESSSEQKFYNFVILHARADEHIALRVREKLEALGVPDGATFCEDFQVPGRGELSCLQDAIDHSAFIILLLTSNFDCRLSLHQVNQAMMSNLTRQGSPDCVIPFLPLESSPAQLSSDTASLLSGLVRLDEHSQIFARKVANTFKPHRLQARKAMWRKEQDTRALREQSQHLDGERMQAAALNAAYSAYLQSYLSYQAQMEQLQVAFGSHMSFGTGAPYGARMPFGGQVPLGAPPPFPTWPGCPQPPPLHAWQAGTPPPPSPQPAAFPQSLPFPQSPAFPTASPAPPQSPGLQPLIIHHAQMVQLGLNNHMWNQRGSQAPEDKTQEAE

How the values were obtained:
Flag-TLR3 A795P = Flag-TLR3 A795P (human, UniProt O15455 24-904, A795P); assay: co-IP
[1] = target: Flag-TLR3 (wild-type Toll-like receptor 3) (human, UniProt O15455 24-904); assay: co-IP

Binder | fold increase in binding after poly (I:C) against unstimulated (Flag-TLR3 A795P) [fold] | fold increase in binding after poly (I:C) against unstimulated [1] [fold]
B1 | 2 | 
B2 | 1.5 | 2.5
